Read counts are not given, so values of variants with three or more changes are uncertain.
B1: LINE1-full (parent)
chain: UACGUAGGUGGUUUUCCCCUGAUAGUGCUAAGGGGGCCUGGAAGUUUGGACUGGGCAGAGCUCAACACAGCGUGGCAAAGUGGCUGUGGCUAGACUGCCUCUCUGGAUUCCUCGUCACUCAGCAGGGCAUCUCUGAGAGAAAUGCC

Variants of: B1
Test: self-cleavage, relative activity (ratio to wild type); higher = more cleavage; in vitro, sequencing; the parent is a self-cleaving ribozyme

Variant | self-cleavage
U46A A129G A141G | 1.55
U15A U85C U87C | 0
A24U A129G A141G | 1.25
U23A U45G C76G U134C A140U | 2.58
A78C G83A U87A | 0.08
U12C A69G A124G | 0.46
A31U U46C A64U U81C C99U | 0.37
A67U G86A A92G U143A | 0.05
U46C U52C G82A G126A A138U U143A | 1.15
U9C U52A U102C U132C | 1.75
U52C A64C A142G | 0.61
A24G U39C U134A | 0
A43G U62C G74A | 0.06
U12G U47A U91C C128A | 0.55
A24G U46C A138G A140G | 1.41
G7U A24U A57G | 0.24
U39A A42G U96C | 0.35
A2G G7U U87A | 0.02
A24G U26C C113A | 1.09
G36C A43G A59U | 0.81
U23C A94G U112C | 0.31

Variant | self-cleavage
U26A A57G A79G | 0
U12C U62C A67G | 0
U15G C51A A59G | 0.3
A31U G36C U39C A136U | 1.2
A2G A65G C76U U134C U143C | 0.34
U14C A22U A107G U109A U112C A142G | 1.19
G55A U73A U112A A136G | 0.19
U112C U143C C145U | 1.22
U12G U15A U81C G93A | 0.46
U45C A50U A94U U112A A117C A141G | 0.44
U14C A50U A57G U62C G86A | 0.07
G4A U20G U52C U87C | 0
U5C U20C U100C | 0.95
G58U U100C A124G | 0.01
U9C U100C U104C A142G | 1.91
U20A A42G U130A | 0.4
U9A U39C A78G A142G | 1.8
U23A U26C U39C | 0.61
A30U U47C C101U | 1.09
A31U C38U A42U U85C U91C | 0.26
G48A A57G A140G | 0.48

Variant | self-cleavage
U5C A64U A79C | 0.65
A22G C95U U112C | 0
U46C G54U U100A U109G A141G | 0.25
A94U U115C A129U | 0.56
A59G U119C U130A U132C | 0
C3U A121G A142G | 1.65
U20C A67G A79G | 0.92
A64G A92U G114A U115C A117C A141G | 0.86
A22U U104C A140G | 1.61
U5C U20A U47G A136G | 1.08
A94G G106A U132C | 0.2
C17U U20C A117G | 1.31
U12C A43G A67C U130C | 0.49
G35U A64G U108C | 0.03
U9G A31G U73C | 0.46
U12G U85C A117G | 0.26
U12G U47A U73C U100C | 2.9
U14C U102C U119C C145U | 1.37
U46C G114A A140G | 0.87
U13C A138G U143C | 1.16
U13C G33A A117G A138G | 0.72

Variant | self-cleavage
U23G A67U A78U | 0.3
U12G A22U G34C C118U | 1.11
U5C A6U U9C A78G | 0.89
U26A A67U A142G | 0.06
A6G U9A A124U A141G | 1.06
U20A U26A U96A C113A A142G | 0
U9C U15C U104C | 1.38
U9A G55A A92G U100A | 0.09
U29C A30G A77U | 0.87
U46C U100A A117G | 0.54
U9C C95A A141G | 0.05
U9C A79G A141G | 1.1
U1C G40A U52A | 0.83
G21A U85C A124G | 0.05
G25A U112C A142G | 1.48
G53A A57U A79G | 0.09
U9A U14C U132C | 0.34
U1C A2G G88U A129G | 0.16
U12C U13C A22G G97A A107G | 0.22
U5C U15C A69U U96G U104A | 0.93
